According to the BET-seq Pho4 binding data (Le et al. 2018):
The other results are listed elsewhere or left out. The energies were worked out here from pooled read counts, against the library average; single values are noisy.

target: T1, Pho4 (S. cerevisiae) (UniProt P07270); experiment: relative binding free energy (BET-seq); higher = weaker binding; settings: reference: library average
T1 sequence: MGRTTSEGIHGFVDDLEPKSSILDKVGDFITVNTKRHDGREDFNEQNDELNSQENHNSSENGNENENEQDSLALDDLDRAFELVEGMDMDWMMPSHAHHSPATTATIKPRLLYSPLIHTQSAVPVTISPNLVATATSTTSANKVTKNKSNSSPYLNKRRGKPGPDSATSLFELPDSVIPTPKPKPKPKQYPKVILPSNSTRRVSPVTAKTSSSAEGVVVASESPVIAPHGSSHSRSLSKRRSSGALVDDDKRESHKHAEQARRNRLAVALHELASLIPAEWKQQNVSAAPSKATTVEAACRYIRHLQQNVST

| Sequence | relative binding free energy |
| --- | --- |
| ATTTGCACGTGTTCAA | -0.07 kcal/mol |
| AGGTGCACGTGGGCGG | -0.22 kcal/mol |
| CAGATCACGTGTTTGG | 0.06 kcal/mol |
| ATTGTCACGTGCGTGT | 0.11 kcal/mol |
| TCTGTCACGTGGTGGC | 0.1 kcal/mol |
| AGTGTCACGTGATCAG | 0.1 kcal/mol |
| TTGGGCACGTGTGACA | -0.06 kcal/mol |
| TTTTTCACGTGCTAGA | 0.29 kcal/mol |
| CTTTTCACGTGCAGTG | 0.19 kcal/mol |
| GGGCGCACGTGAGTAG | 0.06 kcal/mol |
| CTGGTCACGTGGTACG | -0.08 kcal/mol |
| GTCGGCACGTGTGGGA | 0.06 kcal/mol |
| TGTTACACGTGTACTG | 0 kcal/mol |
| CTAGTCACGTGGGTTT | -0.15 kcal/mol |
| TCGGTCACGTGGTATA | -0.03 kcal/mol |
| TTATTCACGTGGACTT | 0.13 kcal/mol |
| GGCCGCACGTGGGGTG | -0.29 kcal/mol |
| GGGGGCACGTGGTGGT | -0.11 kcal/mol |
| AAGTGCACGTGTAGCT | -0.03 kcal/mol |
| TATGTCACGTGAAGGG | 0.3 kcal/mol |
| AATTTCACGTGGGACT | 0.16 kcal/mol |
| GGTTGCACGTGAGGGA | 0.28 kcal/mol |
| GAATACACGTGGGAGG | -0.05 kcal/mol |
| GTTTGCACGTGGCACG | -0.02 kcal/mol |
| CGTAGCACGTGTGGAG | -0.01 kcal/mol |

| Sequence | relative binding free energy |
| --- | --- |
| TGTGGCACGTGAGGAG | 0.08 kcal/mol |
| GCAGGCACGTGGCTTG | -0.09 kcal/mol |
| TTTAGCACGTGTTGGA | -0.05 kcal/mol |
| ATGATCACGTGGGCGA | 0.08 kcal/mol |
| GGTTGCACGTGAGTTA | 0.32 kcal/mol |
| GTCATCACGTGACGGT | 0.4 kcal/mol |
| CGGCACACGTGTTGGT | -0.03 kcal/mol |
| TAACTCACGTGGGGGT | 0.04 kcal/mol |
| AGTAACACGTGGCGTT | -0.19 kcal/mol |
| GGGTTCACGTGGGTTA | 0.17 kcal/mol |
| GTCGGCACGTGGGAAT | -0.13 kcal/mol |
| GAGGGCACGTGGTGTC | -0.09 kcal/mol |
| GTGGTCACGTGGGCTG | 0.01 kcal/mol |
| AGCGACACGTGTTTTT | 0.21 kcal/mol |
| GGATCCACGTGGTGTT | -0.2 kcal/mol |
| GTTTTCACGTGTTCTG | 0.33 kcal/mol |
| ATGTACACGTGGGGTT | -0.1 kcal/mol |
| GTAAACACGTGAGGGA | 0.3 kcal/mol |
| TAATGCACGTGAGGGG | 0.13 kcal/mol |
| GCTGGCACGTGAAGAG | 0.14 kcal/mol |
| ATGCACACGTGTGGGT | 0.15 kcal/mol |
| GTGTGCACGTGGATCT | -0.05 kcal/mol |
| GAAGGCACGTGAATGG | 0.08 kcal/mol |
| TTAAGCACGTGGGATT | -0.17 kcal/mol |
| CTGGTCACGTGAAGGT | 0.3 kcal/mol |

| Sequence | relative binding free energy |
| --- | --- |
| TGGTTCACGTGGTTCT | 0.17 kcal/mol |
| GGTTGCACGTGCGAAG | 0.03 kcal/mol |
| AGTTACACGTGAATAG | 0.6 kcal/mol |
| ATGAACACGTGGCTGG | -0.06 kcal/mol |
| TTTTGCACGTGTCGGA | 0.2 kcal/mol |
| GTGGTCACGTGCGATG | 0.05 kcal/mol |
| AATTTCACGTGATGAT | 0.29 kcal/mol |
| GGGCGCACGTGGGTTG | -0.33 kcal/mol |
| TTAGTCACGTGTAGAC | 0.17 kcal/mol |
| CGGCGCACGTGGGCGG | -0.28 kcal/mol |
| TACAACACGTGGTGGT | -0.03 kcal/mol |
| GTTGGCACGTGTACAT | -0.02 kcal/mol |
| ACGGTCACGTGATGGA | 0.14 kcal/mol |
| AAGTGCACGTGCGTTT | -0.12 kcal/mol |
| TCGGGCACGTGTTGCT | -0.05 kcal/mol |
| CGGGCCACGTGAGTGG | 0.03 kcal/mol |
| GGATGCACGTGTGATG | -0.11 kcal/mol |
| ATTTACACGTGTAGAG | 0.05 kcal/mol |
| AGATGCACGTGAGCAG | 0.24 kcal/mol |
| TCGGGCACGTGGGCAT | -0.3 kcal/mol |
| CCAGTCACGTGGTTGG | 0.06 kcal/mol |
| GTGTTCACGTGTAGCA | 0.39 kcal/mol |
| AGTTCCACGTGTAGGG | 0.05 kcal/mol |
| GTGGACACGTGTGTGA | 0.1 kcal/mol |
| TTTGACACGTGCTGGA | 0.11 kcal/mol |

| Sequence | relative binding free energy |
| --- | --- |
| TGGCCCACGTGGGAGT | -0.21 kcal/mol |
| CGGGACACGTGGGAAA | 0.12 kcal/mol |
| CGTTACACGTGTTACG | 0.24 kcal/mol |
| TATGCCACGTGAGATT | 0.23 kcal/mol |
| GGGGACACGTGGTGTG | -0.01 kcal/mol |
| TTAAGCACGTGAAGAT | 0.24 kcal/mol |
| GTGTTCACGTGTTAGT | 0.38 kcal/mol |
| GCGATCACGTGTTGTT | 0.22 kcal/mol |
| TTTGGCACGTGGCTAT | -0.22 kcal/mol |
| ATAGACACGTGTAGGG | -0.08 kcal/mol |
| ACGTGCACGTGAAGTT | 0.1 kcal/mol |
| GTATTCACGTGATTGT | 0.31 kcal/mol |
| ATGAGCACGTGCGAGT | -0.13 kcal/mol |
| CGAATCACGTGGGTGA | 0.02 kcal/mol |
| TGAATCACGTGTGCGA | 0.11 kcal/mol |
| TGTGCCACGTGTGTGA | -0.19 kcal/mol |
| CTTGTCACGTGAAGGC | 0.31 kcal/mol |
| TGAGGCACGTGGCGAC | -0.06 kcal/mol |
| GGATTCACGTGGCTTA | 0.27 kcal/mol |
| CGGGTCACGTGATCGG | 0.06 kcal/mol |
| AGATTCACGTGTGGGG | 0.3 kcal/mol |
| TAGGTCACGTGTGTGC | 0.06 kcal/mol |
| GAGTGCACGTGTAGTG | 0.11 kcal/mol |
| TTGCTCACGTGAATTT | 0.49 kcal/mol |
| TGCTGCACGTGTAGAT | 0.06 kcal/mol |

| Sequence | relative binding free energy |
| --- | --- |
| TAATGCACGTGTCGGT | -0.1 kcal/mol |
| GGCGCCACGTGGTTTA | 0.04 kcal/mol |
| AATTTCACGTGAATTT | 0.41 kcal/mol |
| AGTTACACGTGGGTCA | 0.05 kcal/mol |
| GTTTCCACGTGTGTGA | 0.12 kcal/mol |
| TAGAGCACGTGCTGGA | -0.05 kcal/mol |
| ATCGTCACGTGGATGT | 0.1 kcal/mol |
| CAGTGCACGTGGCTGT | 0 kcal/mol |
| TGTTTCACGTGTCATA | 0.38 kcal/mol |
| TCGAGCACGTGGTGTT | -0.15 kcal/mol |
| CGGTGCACGTGATGTG | 0.03 kcal/mol |
| CGTGGCACGTGGGTTG | -0.2 kcal/mol |
| TTCGTCACGTGAGGAA | 0.22 kcal/mol |
| AATGTCACGTGTTTAG | 0.08 kcal/mol |
| AATGGCACGTGGTGAG | -0.23 kcal/mol |
| GACGGCACGTGGGCGT | -0.21 kcal/mol |
| GCGGGCACGTGGCATG | -0.07 kcal/mol |
| CGGGGCACGTGGTGAA | -0.22 kcal/mol |
| TGATCCACGTGAGTGG | 0.11 kcal/mol |
| CGGTTCACGTGTGGAA | 0.15 kcal/mol |
| ATATTCACGTGCTGAG | 0.19 kcal/mol |
| GTTTACACGTGGACGG | 0.23 kcal/mol |
| CTGGTCACGTGGTATA | 0.13 kcal/mol |
| GGAGTCACGTGGCGTC | 0.1 kcal/mol |
| TATTGCACGTGCGGGG | -0.08 kcal/mol |

| Sequence | relative binding free energy |
| --- | --- |
| TATGGCACGTGGTTAC | -0.15 kcal/mol |
| GGGTTCACGTGGGTGT | 0.26 kcal/mol |
| TGTGTCACGTGGTCAT | -0.03 kcal/mol |
| AAAGTCACGTGAGGTG | 0.14 kcal/mol |
| TGGTGCACGTGAGGAA | 0.33 kcal/mol |
| GTTAGCACGTGTGGTG | 0.04 kcal/mol |
| TGGGCCACGTGGGGAG | -0.22 kcal/mol |
| AAGGTCACGTGTTTTG | 0.12 kcal/mol |
| AGTCTCACGTGTTGTA | -0.07 kcal/mol |
| ATTAACACGTGTTTTG | -0.17 kcal/mol |
| GCTTGCACGTGGGTGT | -0.09 kcal/mol |
| TTCCGCACGTGTGGGG | -0.07 kcal/mol |
| AGAAGCACGTGGTGCA | -0.14 kcal/mol |
| GCGAGCACGTGGCGTG | -0.06 kcal/mol |
| TCGGGCACGTGTATAT | -0.12 kcal/mol |
| CTGGTCACGTGTCATG | 0.09 kcal/mol |
| CAGTTCACGTGGTATA | 0.24 kcal/mol |
| GTTGGCACGTGTTGAG | -0.03 kcal/mol |
| TGGGCCACGTGTTCTA | 0.06 kcal/mol |
| TGTAACACGTGGGAGC | -0.22 kcal/mol |
| ATGTTCACGTGGCGAG | 0.13 kcal/mol |
